# In the supplement of paper PMC10037445:
# Over roughly 2,900 compounds, “IRF Lucia reporter activity, fold change vs agonist alone” has its median near 0.9; the highest 2% begin near 2.8. The list shows a part of the results.
# Tests used:
# RAW-Dual [1] = assay: IRF Lucia reporter activity, fold change vs agonist alone; cytotoxicity flag (confluency mask): not cytotoxic; higher = enhanced IRF activity
# In short: (§1)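 Supernatant from RAW-Dual macrophages was read after 20 hours for IRF by QuantiLuc luminescence and for NF-κB by QuantiBlue absorbance at 620 nm. The cells (50,000 cells/well in DMEM, 384-well plates, 37 °C, 5% CO2) had received 50 nL of library stock by pin tool and, 1 h later, a PRR agonist. Reporter activity is expressed relative to agonist-alone wells as fold change, and wells were flagged cytotoxic if IncuCyte confluency was under 70% of agonist controls in both mask sets.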
# RAW-Dual [2] = assay: IRF Lucia reporter activity, fold change vs agonist alone; higher = enhanced IRF activity; settings: library stock concentration (final ~1000-fold dilution): 10 mM, agonist: MPLA (TLR4) […]
# In short: as §1
# RAW-Dual [3] = assay: IRF Lucia reporter activity, fold change vs agonist alone; cytotoxicity flag (confluency mask): cytotoxic (confluency <70% of control); higher = enhanced IRF activity
# In short: as §1
# [4] = agonist: 3'3'-cGAMP (STING) 10 ug/mL
# [5] = cytotoxicity flag (confluency mask): not cytotoxic
# [6] = cytotoxicity flag (confluency mask): cytotoxic (confluency <70% of control)
smiles,measurement,setting,value
COc1ccc(CNC(=O)Nc2ncc([N+](=O)[O-])s2)cc1 (library stock concentration (final ~1000-fold dilution): 10 mM),IRF Lucia reporter activity,RAW-Dual [1]; [4],0.715
same,IRF Lucia reporter activity,RAW-Dual [1]; agonist: LPS (TLR4) 0.1 ug/mL,0.64
COc1ccc(CNC(=O)Nc2ncc([N+](=O)[O-])s2)cc1,IRF Lucia reporter activity,RAW-Dual [2]; [5],0.897
Cn1c2ccccc2c2c3c(c4c5ccccc5n(CCC#N)c4c21)CNC3=O,IRF Lucia reporter activity,RAW-Dual [2]; [5],0.203
Cn1c2ccccc2c2c3c(c4c5ccccc5n(CCC#N)c4c21)CNC3=O (library stock concentration (final ~1000-fold dilution): 10 mM),IRF Lucia reporter activity,RAW-Dual [1]; [4],0.0296
same,IRF Lucia reporter activity,RAW-Dual [1]; agonist: LPS (TLR4) 0.1 ug/mL,0.187
O=C(O)c1ccc2c3c1cccc3c(=O)n1c3ccccc3nc21 (library stock concentration (final ~1000-fold dilution): 10 mM),IRF Lucia reporter activity,RAW-Dual [1]; [4],0.485
same,IRF Lucia reporter activity,RAW-Dual [1]; agonist: LPS (TLR4) 0.1 ug/mL,0.247
N#CC1CCCN1C(=O)CNC12CC3CC(CC(O)(C3)C1)C2 (stereo not given) (library stock concentration (final ~1000-fold dilution): 10 mM),IRF Lucia reporter activity,RAW-Dual [1]; [4],0.994
same,IRF Lucia reporter activity,RAW-Dual [1]; agonist: LPS (TLR4) 0.1 ug/mL,1.05
N#CC1CCCN1C(=O)CNC12CC3CC(CC(O)(C3)C1)C2 (stereo not given),IRF Lucia reporter activity,RAW-Dual [2]; [5],0.924
O=[N+]([O-])c1cnc(Sc2nnc(O)n2-c2ccc3c(c2)OCCO3)s1 (library stock concentration (final ~1000-fold dilution): 10 mM),IRF Lucia reporter activity,RAW-Dual [1]; [4],0.0101
same,IRF Lucia reporter activity,RAW-Dual [1]; agonist: LPS (TLR4) 0.1 ug/mL,0.00928
C/C(=N\NC(=O)c1cccc(S(=O)(=O)N2CCOCC2)c1)c1cc(Cl)ccc1O (library stock concentration (final ~1000-fold dilution): 10 mM),IRF Lucia reporter activity,RAW-Dual [1]; [4],0.735
same,IRF Lucia reporter activity,RAW-Dual [1]; agonist: LPS (TLR4) 0.1 ug/mL,1.74
C=CC(=O)Nc1cc(Nc2nccc(-c3cn(C)c4ccccc34)n2)c(OC)cc1N(C)CCN(C)C.CS(=O)(=O)O,IRF Lucia reporter activity,RAW-Dual [2]; [6],0.428
C=CC(=O)Nc1cc(Nc2nccc(-c3cn(C)c4ccccc34)n2)c(OC)cc1N(C)CCN(C)C.CS(=O)(=O)O (library stock concentration (final ~1000-fold dilution): 10 mM),IRF Lucia reporter activity,RAW-Dual [3]; [4],0.144
same,IRF Lucia reporter activity,RAW-Dual [3]; agonist: LPS (TLR4) 0.1 ug/mL,0.936
CC1CCC2C(C)(C)C3CC12CCC3(C)O (stereo not given) (library stock concentration (final ~1000-fold dilution): 10 mM),IRF Lucia reporter activity,RAW-Dual [3]; [4],1.15
same,IRF Lucia reporter activity,RAW-Dual [3]; agonist: LPS (TLR4) 0.1 ug/mL,1.04
CC1CCC2C(C)(C)C3CC12CCC3(C)O (stereo not given),IRF Lucia reporter activity,RAW-Dual [2]; [6],1.23
O=c1cccccc1O,IRF Lucia reporter activity,RAW-Dual [2]; [5],1.24
O=c1cccccc1O (library stock concentration (final ~1000-fold dilution): 10 mM),IRF Lucia reporter activity,RAW-Dual [1]; [4],0.664
same,IRF Lucia reporter activity,RAW-Dual [1]; agonist: LPS (TLR4) 0.1 ug/mL,0.952
CCC(F)(F)c1cc(N2CCC(S(C)(=O)=O)CC2)nc2sc(C(N)=O)c(N)c12 (library stock concentration (final ~1000-fold dilution): 10 mM),IRF Lucia reporter activity,RAW-Dual [1]; [4],0.22
same,IRF Lucia reporter activity,RAW-Dual [1]; agonist: LPS (TLR4) 0.1 ug/mL,0.156
Cc1cn(C2OC(CO)C(O)C2F)c(=O)[nH]c1=O (stereo not given) (library stock concentration (final ~1000-fold dilution): 10 mM),IRF Lucia reporter activity,RAW-Dual [1]; [4],1.02
same,IRF Lucia reporter activity,RAW-Dual [1]; agonist: LPS (TLR4) 0.1 ug/mL,0.922
Cc1cn(C2OC(CO)C(O)C2F)c(=O)[nH]c1=O (stereo not given),IRF Lucia reporter activity,RAW-Dual [2]; [5],1.11
CC(=O)N1CCN(CCOc2ccc(C3CCN(C4=Nn5c(nnc5C(F)(F)F)CC4)CC3)cc2)CC1 (library stock concentration (final ~1000-fold dilution): 10 mM),IRF Lucia reporter activity,RAW-Dual [3]; [4],0.627
same,IRF Lucia reporter activity,RAW-Dual [3]; agonist: LPS (TLR4) 0.1 ug/mL,0.381
CC(=O)N1CCN(CCOc2ccc(C3CCN(C4=Nn5c(nnc5C(F)(F)F)CC4)CC3)cc2)CC1,IRF Lucia reporter activity,RAW-Dual [2]; [6],0.28
O=C(O)c1ccc(/C=C2/SC(=S)N(c3cccc(C(F)(F)F)c3)C2=O)cc1,IRF Lucia reporter activity,RAW-Dual [2]; [5],1.18
O=C(O)c1ccc(/C=C2/SC(=S)N(c3cccc(C(F)(F)F)c3)C2=O)cc1 (library stock concentration (final ~1000-fold dilution): 10 mM),IRF Lucia reporter activity,RAW-Dual [1]; [4],0.868
same,IRF Lucia reporter activity,RAW-Dual [1]; agonist: LPS (TLR4) 0.1 ug/mL,1.26
CCc1cccc2c3c([nH]c12)C(CC)(CC(=O)O)OCC3 (stereo not given) (library stock concentration (final ~1000-fold dilution): 10 mM),IRF Lucia reporter activity,RAW-Dual [1]; [4],1.05
same,IRF Lucia reporter activity,RAW-Dual [1]; agonist: LPS (TLR4) 0.1 ug/mL,0.946
CCc1cccc2c3c([nH]c12)C(CC)(CC(=O)O)OCC3 (stereo not given),IRF Lucia reporter activity,RAW-Dual [2]; [5],1.12
O=C1CC(c2c[nH]c3ccc(F)cc23)C(=O)N1 (stereo not given) (library stock concentration (final ~1000-fold dilution): 10 mM),IRF Lucia reporter activity,RAW-Dual [1]; [4],0.989
same,IRF Lucia reporter activity,RAW-Dual [1]; agonist: LPS (TLR4) 0.1 ug/mL,0.839
CC(C)=CC(C)C[C@](C)(O[C@@H]1O[C@H](CO)[C@@H](O)[C@H](O)[C@H]1O)[C@H]1CC[C@]2(C)C3CCC4C(C)(C)C(O[C@@H]5O[C@H](CO)[C@@H](O)[C@H](O)[C@H]5O[C@@H]5O[C@H](CO)[C@@H](O)[C@H](O)[C@H]5O)CC[C@]4(C)C3C[C@H](O)[C@@H]12 (stereo not given in full) (library stock concentration (final ~1000-fold dilution): 10 mM),IRF Lucia reporter activity,RAW-Dual [1]; [4],0.991
same,IRF Lucia reporter activity,RAW-Dual [1]; agonist: LPS (TLR4) 0.1 ug/mL,1.47
Cc1nc(N)sc1-c1ccnc(Nc2ccc(N3CCOCC3)cc2)n1 (library stock concentration (final ~1000-fold dilution): 10 mM),IRF Lucia reporter activity,RAW-Dual [1]; [4],0.0149
same,IRF Lucia reporter activity,RAW-Dual [1]; agonist: LPS (TLR4) 0.1 ug/mL,0.023
Cc1nc(N)sc1-c1ccnc(Nc2ccc(N3CCOCC3)cc2)n1,IRF Lucia reporter activity,RAW-Dual [2]; [5],0.0284
